Assay results: the supplement of paper PMC8285479
Structures can show the parent of a compound that is named as a salt. ± gives the standard deviation of the averaged measurements. In all, about 1,900 compounds were measured (“normalised cell viability (NPI; 0 = phenylarsine oxide control, 1 = DMSO control)”: median about 1, lowest 2% from about 0.039 on). The list shows a part of the results.

System: NCI-H1944
Test: normalised cell viability (NPI; 0 = phenylarsine oxide control, 1 = DMSO control) (fraction of DMSO control); NCI-H1944 is a non-small cell lung cancer line; higher = more viable cells (less compound toxicity)
Settings: 6 days
[1] = glucocorticoid arm: hydrocortisone 2.75 uM co-treatment, compound 1 µM
[2] = glucocorticoid arm: hydrocortisone 2.75 uM co-treatment, compound 5 µM
[3] = glucocorticoid arm: hydrocortisone 2.75 uM pre-treated 2 days and continued, compound 1 µM
[4] = glucocorticoid arm: hydrocortisone 2.75 uM pre-treated 2 days and continued, compound 5 µM
[5] = glucocorticoid arm: vehicle, compound 1 µM
[6] = glucocorticoid arm: vehicle, compound 5 µM
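Note: CTB read-out in 384-well plates, mean of triplicate wells, normalised per plate against 1 µM phenylarsine oxide and 0.1% DMSO, compounds added 24 h after seeding.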

| SMILES | normalised cell viability [1] | normalised cell viability [2] | normalised cell viability [3] | normalised cell viability [4] | normalised cell viability [5] | normalised cell viability [6] |
| --- | --- | --- | --- | --- | --- | --- |
| NCCc1c[nH]c2ccccc12 [Tryptamine hydrochloride] | 1.01 ± 0.01 | 1.03 ± 0.015 | 0.9993 ± 0.0093 | 1.025 ± 0.0071 | 0.998 ± 0.011 | 0.99967 ± 0.00058 |
| Cc1ccc(S(=O)(=O)N[C@@H](CCCCN)C(=O)CCl)cc1 [Na-p-Tosyl-L-lysine chloromethyl ketone hydrochloride] | 1.005 ± 0.0092 | 1.03 ± 0.026 | 0.859 ± 0.25 | 1.02 ± 0.011 | 1.01 ± 0.011 | 1.001 ± 0.0076 |
| CCCN1CCC[C@@H](c2cccc(O)c2)C1 [S(-)-3PPP hydrochloride] | 0.987 ± 0.003 | 0.974 ± 0.015 | 1 ± 0.023 | 0.972 ± 0.023 | 0.9953 ± 0.0042 | 0.9813 ± 0.0076 |
| Cc1cccc(C)c1NC1=NCCCS1 [Xylazine HCl] | 1.03 ± 0.017 | 1.02 ± 0.011 | 1.017 ± 0.0058 | 1.01 ± 0.018 | 1.01 | 0.9963 ± 0.0047 |
| Cc1cccc(C)c1NC1=NCCCS1 [Xylazine hydrochloride] | 1.017 ± 0.0058 | 1.013 ± 0.0058 | 0.929 ± 0.17 | 1.047 ± 0.0058 | 1.033 ± 0.0058 | 1.03 |
| Clc1ccc(N2CC3CCC(C2)N3)nn1 | 1.003 ± 0.0064 | 0.979 ± 0.012 | 0.9903 ± 0.0074 | 0.9827 ± 0.004 | 0.9863 ± 0.0075 | 0.9843 ± 0.0086 |
| CCNC(=O)[C@H]1O[C@@H](n2cnc3c(N)ncnc32)[C@H](O)[C@@H]1O [5'-N-Ethylcarboxamidoadenosine] | 1.006 ± 0.0069 | 1.01 ± 0.011 | 1.007 ± 0.0058 | 1.01 ± 0.024 | 1.003 ± 0.0058 | 1.006 ± 0.0063 |
| O=C1CCC[C@@H]2[C@H]3CCCN4CCC[C@@H](CN12)[C@@H]34 [(+)-Matrine] | 1.02 ± 0.01 | 1.02 ± 0.011 | 1.017 ± 0.0058 | 1.02 ± 0.017 | 0.999 ± 0.011 | 0.9893 ± 0.0059 |
